Among the test systems are COLO792; COLO800; COLO829; G361; IPC-298; IST-MEL1; LB2518-MEL; LOXIMVI; MEL-HO; MZ2-MEL; MeWo; RPMI7951; RVH-421; SkMel28; SkMel2; SkMel30; SkMel5; UACC257; UACC62.
Common to all, as to test: cell count relative to DMSO control; melanoma cells; higher = more viable cells
Common to all, as to conditions: library dose: low library concentration; 72 h

The other results are listed elsewhere or left out. Repeats are few or missing, and single values can be far off.
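Also: cell number obtained by counting DAPI-stained nuclei in high-throughput microscope images with image analysis software, screen run in 1,536-well plates.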

Turning to `N.N.[Cl][Pt][Cl]` [cisplatin] + COc1cc2c(Oc3ccc4[nH]c(C)cc4c3F)ncnc2cc1OCCCN1CCCC1 [cediranib] (first compound 1.6 µM, partner dose 0.4 µM), the cell count was determined as 93.4% in the assay on COLO792; 111% in the assay on COLO800; 101% with COLO829; 105% in the assay on G361; 106% with IPC-298; 95.1% with IST-MEL1. For the same compound, the cell count came to 109% in the assay on LB2518-MEL; 69.2% in the assay with LOXIMVI; 111% in the assay on MEL-HO; 104% with MZ2-MEL; 107% in the assay on MeWo; 88.9% in the assay on RPMI7951. Besides, the cell count with RVH-421 came out at 86.5%; with SkMel28, 106%; in the assay on SkMel2, 92.2%; with SkMel30, 101%; with SkMel5, 105%; with UACC257, 96.7%. The compound further yielded a cell count in the assay with UACC62 of 110%.
For the compound `C[C@]12O[C@H](C[C@]1(O)CO)n1c3ccccc3c3c4c(c5c6ccccc6n2c5c31)CNC4=O` [Lestaurtinib] + COc1ccc2c(c1)CCC1C2CCC2(C)C(NCCCCCCN3C(=O)C=CC3=O)CCC12 [U73122] (first compound 0.004 µM, partner dose 0.4 µM), the cell count with COLO792 turned out to be 94.9%; in the assay on COLO800, 84.5%; in the assay on COLO829, 107%; in the assay with G361 it was 112%; in the assay on IPC-298 it was 103%; with IST-MEL1, 103%. The cell count turned out to be 109% in the assay with LB2518-MEL; 75.3% with LOXIMVI; 95.9% in the assay with MEL-HO; 104% with MZ2-MEL; 99.6% in the assay on MeWo; 78.9% with RPMI7951. The cell count with RVH-421 worked out at 94.1%; with SkMel28, 103%; with SkMel30 it was 84.7%; in the assay with SkMel5, 101%; in the assay with UACC257, 88.2%; in the assay on UACC62 it was 99.6%.
Turning to `Cn1cc(C2=C(c3cn(C4CCN(Cc5ccccn5)CC4)c4ccccc34)C(=O)NC2=O)c2ccccc21` [Enzastaurin] + CC(C)CCN1c2nc(Nc3cc(F)c(O)c(F)c3)ncc2N(C)C(=O)C1C [BID1870] (first compound 0.8 µM, partner dose 0.2 µM), the cell count in the assay on COLO792 turned out to be 96.9%; with COLO800, 76.2%; with COLO829 it was 108%; with G361, 96.7%; with IPC-298, 104%; with IST-MEL1, 98.7%. The cell count with LB2518-MEL was determined as 81.1%; in the assay with LOXIMVI it was 79.8%; with MEL-HO, 86.5%; in the assay on MZ2-MEL, 95.4%; with MeWo, 109%; in the assay on RPMI7951, 95%. For the same compound, the cell count in the assay with RVH-421 is 79.3%; in the assay with SkMel28, 109%; in the assay on SkMel2, 99.4%; in the assay on SkMel30 it was 96%; in the assay on SkMel5, 97.8%; in the assay with UACC257, 95.5%. Also, in the assay with UACC62, the cell count worked out at 89.6%.
For `C[As](C)SC[C@H](NC(=O)CC[C@H](N)C(=O)O)C(=O)NCC(=O)O` [Darinaparsin] + Cc1cc(N2CCOCC2)cc2[nH]c(-c3c(NC[C@@H](O)c4cccc(Cl)c4)cc[nH]c3=O)nc12 [BMS536924] (first compound 0.4 µM, partner dose 0.2 µM), the cell count in the assay on COLO792 came to 88.9%; in the assay on COLO800 it was 41.5%; in the assay with COLO829 it was 106%; with G361 it was 95.3%; in the assay with IPC-298 it was 99.8%; in the assay with IST-MEL1, 97.3%. The cell count with LB2518-MEL came to 88.3%; in the assay on LOXIMVI, 69.4%; in the assay on MEL-HO it was 91.9%; in the assay on MZ2-MEL, 97%; in the assay on MeWo, 93.5%; with RPMI7951, 96.9%. Further, the cell count in the assay on RVH-421 was 107%; with SkMel28, 106%; in the assay on SkMel2, 84.7%; in the assay on SkMel30, 110%; in the assay with SkMel5, 100%; with UACC257, 90%. The compound also gave a cell count with UACC62 of 89.9%.
